# Measurements reported in PubChem BioAssay AID485294 (National Center for Advancing Translational Sciences (NCATS), 2010).
# Screen size: about 370,000 compounds; about 150 (0.041%) were called active. The shares of active, inactive and inconclusive entries below differ from those in the screen. Calls follow the shape of the dose curve; as a rule, active = well fitted inhibition curve with a large enough effect; inconclusive = small, poorly fitted or top-dose-only effect; inactive = flat fitted curve, though single readings scatter. Potencies of inconclusive entries are left out as doubtful fits.
# Target: Beta-lactamase (Escherichia coli (strain K12)) (UniProt P00811)
# Sequence of UniProt P00811 (P00811 whole entry, looked up): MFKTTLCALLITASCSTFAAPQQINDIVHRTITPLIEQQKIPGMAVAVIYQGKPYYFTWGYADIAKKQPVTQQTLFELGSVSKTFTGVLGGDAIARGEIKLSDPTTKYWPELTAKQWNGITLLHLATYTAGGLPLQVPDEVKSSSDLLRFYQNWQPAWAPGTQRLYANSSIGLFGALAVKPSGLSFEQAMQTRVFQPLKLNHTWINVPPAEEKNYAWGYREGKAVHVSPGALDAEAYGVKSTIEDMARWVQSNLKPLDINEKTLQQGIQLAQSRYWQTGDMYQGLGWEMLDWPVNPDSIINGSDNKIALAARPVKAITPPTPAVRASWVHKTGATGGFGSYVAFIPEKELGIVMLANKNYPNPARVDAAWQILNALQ
# Assay: qHTS Inhibitors of AmpC Beta-Lactamase (assay with detergent); also: nearly all actives have a fitted effect of over 25% in size
# Settings: AmpC hydrolysis of nitrocefin, absorbance 480 nm, 0.01% Triton; series mostly up to 114 µM
# Summary of the method: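 20 mM phosphate pH 7.0 + 0.01% (detergent screen) or 0.0001% Triton X-100; 5.3 nM AmpC reagent; cpd preinc 15 min RT; nitrocefin (800 uM stock) to start; A480 q20 s × 4 min; Activity was normalised to no-enzyme and no-compound control wells.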
# Potency is read from the fitted curve at half-maximal effect; tags tell the direction and shape of the fitted curve.
row,SMILES,Potency
1,Cc1ccsc1C1C(C#N)=C(N)OC2=C1C(=O)CCC2 (centres undefined),inactive
2,COc1ccc(OCCOc2ccc(N(C)S(=O)(=O)c3ccccc3)cc2)cc1,"inconclusive [inhibitor, full curve, poor fit]"
3,CCOC(=O)CCC(=O)NNC(=O)COc1ccc(C(C)C)cc1Br,"inconclusive [inhibitor, full curve, poor fit]"
4,O=C1c2ccccc2N(Cc2ccc(Cl)cc2)C2=NCCN12,inactive
5,O=C(Cn1nnc(-c2ccc(CN3CCOCC3)cc2)n1)NC1CCCCC1,"inconclusive [inhibitor, full curve]"
6,Cc1ccc(NC(=O)c2ccc3ccccc3n2)cc1S(=O)(=O)N(C)C,inactive
7,COc1ccc(CCNC(=O)C2(C)CCC(=O)N2Cc2ccc3c(c2)OCO3)cc1OC (centres undefined),"inconclusive [inhibitor, full curve, poor fit]"
8,CCc1c(C(=O)Nc2ccncc2)csc1C,inactive
9,CC1(C)CNC(=O)C=C(c2ccccc2)C1,"inconclusive [inhibitor, full curve, poor fit]"
10,Cc1ccccc1-n1c(SCc2csc(Nc3ccccc3)n2)nnc1-c1cccnc1,inactive
11,NNC(=O)CNC(c1ccccc1)c1cc(Br)ccc1NC(=O)c1ccc(Br)cc1 (centres undefined),inactive
12,COc1cc(C)c(Cl)cc1S(=O)(=O)NCCCN1CCOCC1,"inconclusive [inhibitor, full curve, poor fit]"
13,Nc1ccc(Sc2ccccc2CC(=O)O)cc1,"inconclusive [inhibitor, partial curve, poor fit]"
14,O=C(NCC(=O)N1CCCC(C(F)(F)F)C1)c1ccc2ccccc2c1 (centres undefined),"inconclusive [inhibitor, full curve, poor fit]"
15,O=C(Nc1ccccc1)c1ccn[nH]1,"inconclusive [inhibitor, partial curve, poor fit]"
16,CCOc1ccc(N2C(=O)CC(N(Cc3ccco3)C(C)=O)C2=O)cc1 (centres undefined),inactive
17,CCc1ccc(NC(=O)Nc2ccon2)cc1,"inconclusive [inhibitor, full curve]"
18,O=c1c(-c2ccc([N+](=O)[O-])cc2)coc2c(O)c(O)ccc12,inactive
19,O=C(/C=C/c1cccs1)Nc1ccc(Br)cn1,inactive
20,Cc1ccc(-n2nc(C(=O)O)nc2-c2ccccc2)cc1,"inconclusive [inhibitor, full curve, poor fit]"
21,Cc1[nH]c2ccc(C(=O)OC(C)C(=O)NCc3ccccc3)cc2c1C (centres undefined),"inconclusive [inhibitor, partial curve, poor fit]"
22,COc1ccc(NC(=O)COC(=O)c2ccco2)c([N+](=O)[O-])c1,"inconclusive [inhibitor, full curve, poor fit]"

row,SMILES,Potency
1,Cc1ccc(NCC(=O)N=Nc2c(O)[nH]c3ccc([N+](=O)[O-])cc23)cc1,inactive
2,COc1ccc(N=c2ssnc2Cl)cc1,"inconclusive [inhibitor, full curve]"
3,CCC(C)Sc1nc2c([nH]c3ccccc32)c(=O)n1C (centres undefined),"inconclusive [inhibitor, partial curve, poor fit]"
4,COc1ccc(C2CC(=O)c3cnn(-c4nc(C)cc(C)n4)c3C2)cc1 (centres undefined),inactive
5,O=C(CN1CCN(S(=O)(=O)c2ccc(Br)cc2)CC1)N/N=C/c1cccnc1,"inconclusive [inhibitor, single point]"
6,Cc1nn(C)cc1/C=N/NC(=O)C1(O)c2ccccc2-c2ccccc21,"inconclusive [inhibitor, full curve, poor fit]"
7,CCOC(=O)C1=C(COC(=O)/C=C/c2ccccc2)NC(=O)NC1C (centres undefined),"inconclusive [inhibitor, partial curve, poor fit]"
8,Cc1c(Cl)cccc1NC(=O)C1CCCN(S(C)(=O)=O)C1 (centres undefined),"inconclusive [inhibitor, partial curve, poor fit]"
9,COc1ccc(OCCn2cc(C(=O)c3ccco3)c3ccccc32)cc1,inactive
10,O=[N+]([O-])c1cccc(OCC(O)CN2CCN(S(=O)(=O)c3cc(Cl)ccc3Cl)CC2)c1 (centres undefined),inactive
11,O=C(CC1N=C2c3ccccc3N=C(SCc3ccc(F)cc3)N2C1=O)NCc1ccco1 (centres undefined),inactive
12,CC(C)(C)OC(=O)NC1CC2CCCC(C1)N2Cc1ccccc1 (centres undefined),"inconclusive [inhibitor, full curve, poor fit]"
13,Cc1ccc(-c2nnc(Cc3ccc(Cl)cc3)o2)cc1,"inconclusive [inhibitor, full curve, poor fit]"
14,O=C(c1ccco1)N1CCN=C1SCc1cccc(F)c1,inactive
15,O=C1CCC(C(=O)N2CCCCO2)CN1Cc1ccc(Cl)cc1 (centres undefined),"inconclusive [inhibitor, partial curve, poor fit]"
16,Cc1nnc(C)c2c(C)n(Cc3ccc4c(c3)OCO4)c(C)c12,"inconclusive [inhibitor, full curve, poor fit]"
17,CC(C)(C)NC(=O)/C(=C\c1ccco1)NC(=O)c1cccs1,"inconclusive [inhibitor, full curve, poor fit]"
18,COc1ccc(NP(=O)(Oc2ccc(Cl)cc2)Oc2ccc(Cl)cc2)cc1OC,"inconclusive [inhibitor, full curve, poor fit]"
19,O=C(Cn1nnc(-c2ccc(F)cc2)n1)Nc1ccc2c(c1)OCCO2,"inconclusive [inhibitor, partial curve]"
20,Cc1ccc(S(=O)(=O)N(CC(=O)NCCSc2ccccn2)c2ccccc2F)cc1,"inconclusive [inhibitor, partial curve, poor fit]"
21,O=C(CCCC(=O)N(CC(=O)NC1CCCCC1)c1cccc(F)c1)Nc1ccccn1,"inconclusive [inhibitor, single point]"
22,CCN(CC)C(=O)C1CCCN(C(=O)c2oc3ccc(C)cc3c2C)C1 (centres undefined),"inconclusive [inhibitor, full curve, poor fit]"
